PubChem BioAssay AID1347165 (National Center for Advancing Translational Sciences (NCATS), 2019)
Among all 220,000 compounds or so, about 5,700 (2.6%) were called active. Inconclusive results, whose numbers are uncertain, are shown with a selection of clear calls. The call rests on the fitted dose curve; in most records, active means well fitted inhibition curve with a large enough effect; inconclusive means small, poorly fitted or top-dose-only effect; inactive means no such curve, though single readings can be large or run the other way. Where the call is inconclusive, the potency comes from a doubtful curve fit.

biological target: Lysine-specific demethylase 5B (Homo sapiens) (UniProt Q9UGL1); test: Primary screen for KDM5B Histone Demethylases FDH-coupled qHTS; details: FDH-coupled NADH fluorescence (FDH is formaldehyde dehydrogenase); series mostly up to 57.7 µM; further: nearly all actives have a fitted effect of over 70% in size
In short: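 Here, H3K4me3 peptide (12.5 µM in substrate mix) is demethylated by KDM5BΔAP, 200 nM final, after 10 min compound exposure. Formaldehyde product is coupled through FDH (0.25 U/mL in mix) to NADH fluorescence; 30-min ΔRFU feeds dose-response curves.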
Potency means the concentration at half of the fitted maximal effect; tags describe the fitted curve by direction and shape.

Sequence of UniProt Q9UGL1 (Q9UGL1 whole entry, looked up): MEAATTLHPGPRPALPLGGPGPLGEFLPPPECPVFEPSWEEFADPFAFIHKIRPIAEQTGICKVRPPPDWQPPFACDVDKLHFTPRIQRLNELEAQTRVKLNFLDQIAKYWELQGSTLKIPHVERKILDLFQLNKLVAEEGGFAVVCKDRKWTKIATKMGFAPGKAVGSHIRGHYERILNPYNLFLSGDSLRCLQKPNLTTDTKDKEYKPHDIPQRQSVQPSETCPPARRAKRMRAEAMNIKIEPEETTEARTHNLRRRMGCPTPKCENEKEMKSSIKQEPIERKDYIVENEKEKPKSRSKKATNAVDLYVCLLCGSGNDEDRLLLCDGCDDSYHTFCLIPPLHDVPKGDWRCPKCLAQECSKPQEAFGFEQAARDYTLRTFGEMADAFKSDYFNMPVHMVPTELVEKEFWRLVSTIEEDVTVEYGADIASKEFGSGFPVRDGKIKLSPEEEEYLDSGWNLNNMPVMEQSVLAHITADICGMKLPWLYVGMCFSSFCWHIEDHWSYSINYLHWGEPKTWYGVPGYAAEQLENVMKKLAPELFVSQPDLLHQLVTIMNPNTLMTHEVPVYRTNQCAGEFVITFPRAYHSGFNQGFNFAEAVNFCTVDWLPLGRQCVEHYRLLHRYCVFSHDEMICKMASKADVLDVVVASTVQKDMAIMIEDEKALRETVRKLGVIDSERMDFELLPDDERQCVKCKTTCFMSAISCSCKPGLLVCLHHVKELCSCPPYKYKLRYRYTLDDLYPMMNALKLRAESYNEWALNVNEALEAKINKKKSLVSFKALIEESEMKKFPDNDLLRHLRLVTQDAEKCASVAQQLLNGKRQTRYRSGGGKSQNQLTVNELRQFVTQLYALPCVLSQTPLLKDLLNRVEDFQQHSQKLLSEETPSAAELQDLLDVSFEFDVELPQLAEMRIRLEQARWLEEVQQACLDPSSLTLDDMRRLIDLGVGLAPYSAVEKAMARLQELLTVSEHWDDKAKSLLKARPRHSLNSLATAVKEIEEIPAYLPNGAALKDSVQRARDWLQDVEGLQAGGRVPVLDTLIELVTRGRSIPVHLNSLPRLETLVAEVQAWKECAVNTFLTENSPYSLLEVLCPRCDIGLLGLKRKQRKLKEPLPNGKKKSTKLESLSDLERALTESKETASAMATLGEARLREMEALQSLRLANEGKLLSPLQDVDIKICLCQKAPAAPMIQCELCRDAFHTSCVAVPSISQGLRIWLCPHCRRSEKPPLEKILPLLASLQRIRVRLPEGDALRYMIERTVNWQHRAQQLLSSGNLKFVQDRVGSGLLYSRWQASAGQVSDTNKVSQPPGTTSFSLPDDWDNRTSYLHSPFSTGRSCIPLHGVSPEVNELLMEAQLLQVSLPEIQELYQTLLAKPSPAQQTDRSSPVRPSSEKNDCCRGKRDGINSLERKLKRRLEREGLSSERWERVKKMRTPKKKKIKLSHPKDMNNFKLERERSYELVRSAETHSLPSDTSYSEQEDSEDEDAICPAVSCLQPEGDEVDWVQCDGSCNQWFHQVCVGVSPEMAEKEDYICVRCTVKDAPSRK

Row | Structure (SMILES) | Potency
1 | CCOC(=O)c1ccc(N2C(=O)c3[nH]nc(-c4ccc(OC)cc4)c3C2c2cccc(O)c2)cc1 (configuration not stated) | inconclusive: 25.1 µM [inhibitor, partial curve, poor fit]
2 | O=C(COC(=O)c1cc(=O)[nH]c2ccccc12)NC1CCCC1 | inconclusive: 22.4 µM [inhibitor, partial curve, poor fit]
3 | Cc1cnc2c(S(=O)(=O)N3CCCCC3C(N)=O)cccc2c1 (configuration not stated) | inactive
4 | COc1cc(/C=C/[N+](=O)[O-])c2c(c1Br)CCCO2 | inconclusive: 1.78 µM [inhibitor, full curve, poor fit]
5 | C[C@@H]1CN(c2nc(-c3ccccc3)no2)CC[C@@]1(O)C1CCC1 | inactive
6 | O=C(NCC1CN(C(=O)Cc2cccc(OC(F)(F)F)c2)CC12CN(c1ccccc1)C2)c1ccccc1 (configuration not stated) | inconclusive: 39.8 µM [inhibitor, single point]
7 | COc1ccc(NC(=O)c2ccc(Cl)cc2)c[n+]1[O-] | inactive
8 | COc1cccc(CNC(=O)c2sc3ncccc3c2-n2c(C)ccc2C)c1OC | inconclusive: 31.6 µM [inhibitor, partial curve, poor fit]
9 | Cc1cc(C)n(C(=O)c2cn(C)nc2S(=O)(=O)N2CCN(c3ccc(Cl)cc3)CC2)n1 | inactive
10 | COc1ccc(NC2=CC(c3ccccc3)N(c3ccc(OC)cc3)C2=O)cc1 (configuration not stated) | inconclusive: 39.8 µM [inhibitor, single point]
11 | CNC(=O)[C@@H]1CN(C(=O)c2ccc(C)[nH]c2=O)C[C@H]1c1nc(COC)no1 | active: 25.1 µM
12 | COc1cccc(C2C(C(=O)Nc3ccccc3OC)=C(C)Nc3nc(-c4ccco4)nn32)c1 (configuration not stated) | inconclusive: 25.1 µM [inhibitor, single point]
13 | N#Cc1cc2c(n(-c3ccccc3C(F)(F)F)c1=O)CCCC2=O | inconclusive: 39.8 µM [inhibitor, single point]
14 | Cc1cccc2c(C(=O)NCCc3ccccc3)cc(-c3cccnc3)nc12 | inconclusive: 25.1 µM [inhibitor, single point]
15 | Cn1c(=O)c2c(ncn2CCC(=O)Nc2ccc(F)c(Cl)c2)n(C)c1=O | inactive
16 | C[C@H](C(=O)NCCN1CCOCC1)C1CC[C@@]2(C)Cc3sc(CS(=O)(=O)Cc4ccc(F)cc4)nc3[C@@H](C)[C@@H]2[C@H]1O (some centres not stated) | inconclusive: 22.4 µM [inhibitor, single point]
17 | Cc1cccn2cc(CSc3nnc(-c4ccccc4)o3)nc12 | inactive
18 | O=C(Cc1cccnc1)N1CCCCCCn2c(nnc2-c2ccc(F)cc2)CC1 | inactive
19 | C=C(c1ccccc1)c1ccc(N(C)C)cc1 | inconclusive: 39.8 µM [inhibitor, single point]
20 | CC(C)C(=O)Nc1ccc(-c2nc3cc(C(C)C)ccc3o2)cc1 | inconclusive: 44.7 µM [inhibitor, single point]
21 | COc1ccc(NC(=O)c2ccc3c(c2)N(C)C2CCCCCN2C3=O)cc1Cl (configuration not stated) | inconclusive: 35.5 µM [inhibitor, partial curve, poor fit]

Row | Structure (SMILES) | Potency
22 | O=C1COc2ccc(-c3ccsc3)nc2CN1Cc1ccc(C(F)(F)F)cc1 | inconclusive: 39.8 µM [inhibitor, partial curve]
23 | CCN(Cc1ccccc1)C(=O)CCC[C@H]1NC[C@@H]2CC1CN(Cc1ccccc1)C2 | inconclusive: 15.8 µM [inhibitor, partial curve, poor fit]
24 | Cc1csc(Nc2ccc3ncn(Cc4ccccc4)c(=O)c3n2)n1 | inconclusive: 56.2 µM [inhibitor, single point]
25 | FC(F)(F)c1cccc(C=Nc2cccc3c(N=Cc4cccc(C(F)(F)F)c4)cccc23)c1 | inconclusive: 25.1 µM [inhibitor, partial curve, poor fit]
26 | CCOc1ccccc1CN1CCNC(=O)C1CC(=O)N1CCCOCC1 (configuration not stated) | inconclusive: 15.8 µM [inhibitor, partial curve]
27 | O=C(c1cnn2ccccc12)N1CCCC(c2nccn2Cc2ccncc2)C1 (configuration not stated) | inconclusive: 20 µM [inhibitor, partial curve, poor fit]
28 | Cc1ccc(Cc2c(C)nc3nc(SCC(=O)NCCC(C)C)nn3c2C)cc1 | inconclusive: 35.5 µM [inhibitor, single point]
29 | COc1cc(CN2CCN(c3ncnc4[nH]ccc34)CC2CCO)cc(OC)c1 (configuration not stated) | inactive
30 | COc1ccc(NC(=O)Cn2c(=O)n(-c3ccc(C)cc3)c(=O)c3c2c2cc(C)ccc2n3C)cc1 | inconclusive: 0.794 µM [inhibitor, partial curve, poor fit]
31 | Cc1cc(OCC(=O)N2CCN(C(=O)C3COc4ccccc4O3)CC2)c2c(C)cc(=O)oc2c1 (configuration not stated) | inconclusive: 22.4 µM [inhibitor, partial curve, poor fit]
32 | CC(Oc1ccccc1)C(=O)Nc1ccc(C(=O)OCc2cc(=O)n3nc(C4CC4)sc3n2)cc1 (configuration not stated) | inconclusive: 39.8 µM [inhibitor, single point]
33 | O=C(CCC(=O)N1Cc2ccccc2Oc2ncccc21)NCc1cccc(Cl)c1 | inconclusive: 35.5 µM [inhibitor, single point]
34 | CCOc1ccccc1CNC(=O)c1ncoc1-c1ccc(OC)cc1 | inconclusive: 25.1 µM [inhibitor, partial curve, poor fit]
35 | COc1ccc(Cc2nc3ccccc3n2Cc2ccccc2C)cc1 | inconclusive: 12.6 µM [inhibitor, partial curve, poor fit]
36 | Cc1cc2[nH]c(=O)c(=O)[nH]c2cc1S(=O)(=O)N1CCN(c2ccccc2)CC1 | inconclusive: 28.2 µM [inhibitor, partial curve, poor fit]
37 | COc1ccc(-c2cc3ccc(O)c(CN4CCCC(C)C4)c3oc2=O)cc1OC (configuration not stated) | inconclusive: 1.26 µM [inhibitor, full curve, poor fit]
38 | O=C(NN=C1CCCCCC1)c1cc(-c2cccs2)nc2ccccc12 | inconclusive: 25.1 µM [inhibitor, partial curve, poor fit]
39 | Cc1ccc2c(C)c(C(=O)N3CCN(c4cnccn4)CC3)oc2c1C | inconclusive: 25.1 µM [inhibitor, partial curve, poor fit]
40 | COc1ccc(OC)c(NC(=O)C2CCc3nc(N4CCN(C(C)=O)CC4)sc3C2)c1 (configuration not stated) | inconclusive: 15.8 µM [inhibitor, partial curve, poor fit]
41 | COc1ccc(/C=C(/NC(=O)c2ccco2)C(N)=O)cc1 | inactive
42 | Cc1ccc(-n2c(=O)c3cccnc3n2CC(=O)Nc2ccc(Cl)cc2)cc1 | inconclusive: 14.1 µM [inhibitor, partial curve, poor fit]

Row | Structure (SMILES) | Potency
43 | COc1cccc2c1CCN=C2C[C@H]1CN(C(=O)C(C)(C)C)CC[C@H]1CC(=O)O | active: 35.5 µM
44 | CN(c1ccccc1)c1cc(=O)c2ccnc(-c3ccncc3)c2o1 | inactive
45 | CC(C)NC(=O)c1cc(Cl)ccc1Cl | inactive
46 | CCn1nc(C)cc1C(=O)N1CCCC(C(=O)c2ccc3ccccc3c2)C1 (configuration not stated) | inconclusive: 22.4 µM [inhibitor, single point]
47 | CCc1nnc([C@@H]2CC(F)(F)CN2Cc2cccn2C)o1 | inconclusive: 14.1 µM [inhibitor, partial curve]
48 | O=C(NCCc1ccccc1)C(=O)NCC(c1cccs1)S(=O)(=O)c1cccs1 (configuration not stated) | inconclusive: 1 µM [inhibitor, full curve, poor fit]
49 | O=C1Nc2ccc(-c3cccc(C(F)(F)F)c3)cc2C(=O)N2C[C@H](O)C[C@@H]12 | inconclusive: 56.2 µM [inhibitor, single point]
50 | CC(=O)Oc1ccc(-c2cc3ccccc3oc2=O)cc1 | inconclusive: 31.6 µM [inhibitor, partial curve, poor fit]
51 | O=C(c1ccc(N2CCCC2)nc1)N1CCC(N2CCOCC2)CC1 | inconclusive: 1.12 µM [inhibitor, full curve, poor fit]
52 | O=C(NCc1ccc2c(c1)OCCO2)N1CCN(S(=O)(=O)c2ccc(Cl)c(Cl)c2)CC1 | inactive
53 | CN1CCN(c2ccc(C(=O)N[C@H](c3ccccn3)C3CC(O)C3)cc2)CC1 (some centres not stated) | inconclusive: 10 µM [inhibitor, partial curve]
54 | COc1ccc(-c2cn3c(n2)sc2cc(C(=O)Nc4ccc(C)c(Cl)c4)ccc23)cc1 | inconclusive: 15.8 µM [inhibitor, partial curve, poor fit]
55 | O=c1oc2ccccc2c(NC2CCCCC2)c1NS(=O)(=O)c1ccc(Cl)cc1 | inconclusive: 25.1 µM [inhibitor, single point]
56 | Cc1cc(C)cc(NC(=O)C2CCCN2S(=O)(=O)c2ccc3nc(-c4ccccc4)[nH]c3c2)c1 (configuration not stated) | inconclusive: 31.6 µM [inhibitor, partial curve, poor fit]
57 | CC(C)(C)c1ccc(-c2cc(C[C@H]3CNCC[C@H]3CC(=O)NCc3cccs3)no2)cc1 | inactive
58 | Cc1ccc(-c2ccc(OCC(=O)Nc3ccc(C(=O)N(C)C)cc3)cc2)cc1 | inactive
59 | CNC(=O)c1ccc2c(c1)NC(C)(CNc1ccccc1)CO2 (configuration not stated) | inconclusive: 28.2 µM [inhibitor, single point]
60 | COC(=O)c1sc(-c2ccccc2)cc1NC(=O)Nc1ccc(F)cc1 | inconclusive: 35.5 µM [inhibitor, partial curve, poor fit]
61 | COC(=O)CC(NC(=O)Cc1cc(C(C)=O)ccc1OC)c1cccs1 (configuration not stated) | inactive
62 | O=C(CSc1nc(-c2ccccc2F)nc2cc(=O)[nH]n12)Nc1cccc(C(F)(F)F)c1 | inconclusive: 20 µM [inhibitor, partial curve, poor fit]
